# Laboratory results reported in the supplement of paper PMC8728848.
# The list shows a part of the results.
# B1: F4 (Escherichia coli), A0A6L9DDF0 (protein)
# chain: MKKTLIALALAASAVSGMAHAWTSGDFNGTVDIGGSIDATNYRQKWEWEVGTGLNGFYNALSELTNNDTKLTITVTGNKPILLGRTKEAFVTPTAGGWGGIPQIAFTDYKGAPVELKNPDGETNKGLAYFVLPMKNADGTEAGSVRVNASYAGAVVEKTSDSSAKLFSAYAGEVIRIFNGGLPVNVTQSELQSGVAAADRTALFGSLGKADLVAQFQAVIPGATVTDGTSSEHCTMRLLASAAYALGIADGQTIEATFNQAVTTSTQWSAPLNVAITYY
# What was measured:
# Assay in all cases: glycan array binding signal (z-score within array); higher = stronger binding
# Conditions in all cases: glycan notation: IUPAC condensed, linker removed
# [1] = biological target: Neu5Ac(a2-3)Gal(b1-4)GlcNAc6S
# Method in brief: (§1)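 The binding signal is a Z-score computed within each array and averaged over linkers. Arrays of the same protein sequence at different concentrations or buffers were also averaged together. Data originate from 3228 arrays in the Consortium for Functional Glycomics database, kept only where the protein sequence was available.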
# [2] = biological target: Neu5Ac(a2-3)Gal(b1-4)[Fuc(a1-3)]GlcNAc
# Method in brief: as §1
# [3] = biological target: Neu5Ac(a2-3)Gal(b1-4)[Fuc(a1-3)]GlcNAc(b1-3)Gal
# Method in brief: as §1
# [4] = biological target: Neu5Ac(a2-3)Gal(b1-4)[Fuc(a1-3)]GlcNAc(b1-3)Gal(b1-4)GlcNAc
# Method in brief: as §1
# [5] = biological target: Neu5Ac(a2-3)Gal(b1-4)[Fuc(a1-3)]GlcNAc(b1-3)Gal(b1-4)[Fuc(a1-3)]GlcNAc(b1-3)Gal(b1-4)[Fuc(a1-3)]GlcNAc
# Method in brief: as §1
# [6] = biological target: Neu5Ac(a2-3)Gal(b1-4)[Fuc(a1-3)]GlcNAc6S
# Method in brief: as §1
# [7] = biological target: Neu5Ac(a2-3)Gal6S(b1-4)GlcNAc
# Method in brief: as §1
# [8] = biological target: Neu5Ac(a2-3)Gal6S(b1-4)[Fuc(a1-3)]GlcNAc
# Method in brief: as §1
# Neu5Ac(a2-3)GalNAc = biological target: Neu5Ac(a2-3)GalNAc
# Method in brief: as §1
# [9] = biological target: Neu5Ac(a2-3)GalNAc(b1-4)GlcNAc
# Method in brief: as §1
# [10] = biological target: Neu5Ac(a2-3)[GalNAc(b1-4)]Gal(b1-4)Glc
# Method in brief: as §1
# [11] = biological target: Neu5Ac(a2-3)[GalNAc(b1-4)]Gal(b1-4)GlcNAc
# Method in brief: as §1
# [12] = biological target: Neu5Ac(a2-3)[Neu5Ac(a2-6)]GalNAc
# Method in brief: as §1
# Neu5Ac(a2-6)Gal = biological target: Neu5Ac(a2-6)Gal
# Method in brief: as §1
# Neu5Ac(a2-6)Gal(b1-4)Glc = biological target: Neu5Ac(a2-6)Gal(b1-4)Glc
# Method in brief: as §1
# [13] = biological target: Neu5Ac(a2-6)Gal(b1-4)GlcNAc
# Method in brief: as §1
# [14] = biological target: Neu5Ac(a2-6)Gal(b1-4)GlcNAc(b1-3)Gal(b1-4)GlcNAc
# Method in brief: as §1
# [15] = biological target: Neu5Ac(a2-6)Gal(b1-4)GlcNAc(b1-3)Gal(b1-4)[Fuc(a1-3)]GlcNAc(b1-3)Gal(b1-4)[Fuc(a1-3)]GlcNAc
# Method in brief: as §1
# [16] = biological target: Neu5Ac(a2-6)Gal(b1-4)GlcNAc6S
# Method in brief: as §1
# Neu5Ac(a2-6)GalNAc = biological target: Neu5Ac(a2-6)GalNAc
# Method in brief: as §1
# [17] = biological target: Neu5Ac(a2-6)GalNAc(b1-4)GlcNAc
# Method in brief: as §1
# Neu5Ac(a2-8)Neu5Ac = biological target: Neu5Ac(a2-8)Neu5Ac
# Method in brief: as §1
# [18] = biological target: Neu5Ac(a2-8)Neu5Ac(a2-3)Gal(b1-4)Glc
# Method in brief: as §1
# [19] = biological target: Neu5Ac(a2-8)Neu5Ac(a2-3)[GalNAc(b1-4)]Gal(b1-4)Glc
# Method in brief: as §1
# [20] = biological target: Neu5Ac(a2-8)Neu5Ac(a2-8)Neu5Ac
# Method in brief: as §1
# [21] = biological target: Neu5Ac(a2-8)Neu5Ac(a2-8)Neu5Ac(a2-3)Gal(b1-4)Glc
# Method in brief: as §1
# [22] = biological target: Neu5Ac(a2-8)Neu5Ac(a2-8)Neu5Ac(a2-3)[GalNAc(b1-4)]Gal(b1-4)Glc
# Method in brief: as §1
# [23] = biological target: Neu5Ac(a2-8)Neu5Ac(a2-8)Neu5Ac(a2-8)Neu5Ac(a2-3)[GalNAc(b1-4)]Gal(b1-4)Glc
# Method in brief: as §1
# Neu5Ac(b1-6)GalNAc = biological target: Neu5Ac(b1-6)GalNAc
# Method in brief: as §1
# [24] = biological target: Neu5Ac(b2-6)Gal(b1-4)GlcNAc
# Method in brief: as §1
# [25] = biological target: Neu5Ac9Ac(a2-6)Gal(b1-4)GlcNAc
# Method in brief: as §1
# [26] = biological target: Neu5Gc(a2-3)Gal(b1-3)GlcNAc
# Method in brief: as §1
# [27] = biological target: Neu5Gc(a2-3)Gal(b1-3)[Fuc(a1-4)]GlcNAc
# Method in brief: as §1
# Neu5Gc(a2-3)Gal(b1-4)Glc = biological target: Neu5Gc(a2-3)Gal(b1-4)Glc
# Method in brief: as §1
# [28] = biological target: Neu5Gc(a2-3)Gal(b1-4)GlcNAc
# Method in brief: as §1
# [29] = biological target: Neu5Gc(a2-3)Gal(b1-4)[Fuc(a1-3)]GlcNAc
# Method in brief: as §1
# [30] = biological target: Neu5Gc(a2-6)Gal(b1-4)GlcNAc
# Method in brief: as §1
# Neu5Gc(a2-6)GalNAc = biological target: Neu5Gc(a2-6)GalNAc
# Method in brief: as §1
binder,measurement,setting,value
B1,glycan array binding signal (z-score),[1],-0.163
same,glycan array binding signal (z-score),[2],2.09
same,glycan array binding signal (z-score),[3],-0.338
same,glycan array binding signal (z-score),[4],-0.176
same,glycan array binding signal (z-score),[5],-0.185
same,glycan array binding signal (z-score),[6],-0.186
same,glycan array binding signal (z-score),[7],-0.21
same,glycan array binding signal (z-score),[8],-0.28
same,glycan array binding signal (z-score),Neu5Ac(a2-3)GalNAc,-0.397
same,glycan array binding signal (z-score),[9],0.016
same,glycan array binding signal (z-score),[10],-0.374
same,glycan array binding signal (z-score),[11],-0.276
same,glycan array binding signal (z-score),[12],-0.393
same,glycan array binding signal (z-score),Neu5Ac(a2-6)Gal,-0.322
same,glycan array binding signal (z-score),Neu5Ac(a2-6)Gal(b1-4)Glc,0.011
same,glycan array binding signal (z-score),[13],-0.297
same,glycan array binding signal (z-score),[14],-0.386
same,glycan array binding signal (z-score),[15],2.24
same,glycan array binding signal (z-score),[16],-0.382
same,glycan array binding signal (z-score),Neu5Ac(a2-6)GalNAc,-0.245
same,glycan array binding signal (z-score),[17],-0.242
same,glycan array binding signal (z-score),Neu5Ac(a2-8)Neu5Ac,0.127
same,glycan array binding signal (z-score),[18],-0.196
same,glycan array binding signal (z-score),[19],-0.168
same,glycan array binding signal (z-score),[20],-0.302
same,glycan array binding signal (z-score),[21],-0.153
same,glycan array binding signal (z-score),[22],-0.333
same,glycan array binding signal (z-score),[23],-0.188
same,glycan array binding signal (z-score),Neu5Ac(b1-6)GalNAc,-0.336
same,glycan array binding signal (z-score),[24],-0.415
same,glycan array binding signal (z-score),[25],-0.136
same,glycan array binding signal (z-score),[26],-0.306
same,glycan array binding signal (z-score),[27],-0.262
same,glycan array binding signal (z-score),Neu5Gc(a2-3)Gal(b1-4)Glc,-0.398
same,glycan array binding signal (z-score),[28],-0.306
same,glycan array binding signal (z-score),[29],-0.349
same,glycan array binding signal (z-score),[30],-0.343
same,glycan array binding signal (z-score),Neu5Gc(a2-6)GalNAc,-0.187
